# Reference: the supplement of paper PMC11417369
# ± gives the standard deviation of the averaged measurements. Some of the results follow.
# Test system: PfAP2-I AP2 domain 3 (GST-tagged)
# Experiment: gcPBM binding intensity (ln(normalized median fluorescence intensity)); higher = stronger DNA binding
# Outline: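 In this array assay, P. falciparum DNA-binding domains with a GST tag, expressed in E. coli, were applied for 1 h to primer-extended double-stranded 36-bp intergenic genomic probes and negative controls on an Agilent 4 × 180k array. Bound protein was visualised with Alexa488 anti-GST antibody at 488 nm. Binding intensity is the highest Masliner-normalised natural-log median intensity across replicate spots of either probe orientation.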
row,Sequence,gcPBM binding intensity (ln)
1,TATTTGTGGATTTTTACACACATTAATATATATATA [CACACA_site3375],8.75 ± 0.042
2,AGGAAAATTATGAATGGTACAGAATATATTAGGAGA [XGTACX_site6282],8.05 ± 0.74
3,AAACAAAATAAATATGAACACACACCGTTATGCCTT [CACACA_site8347],7.61 ± 0.78
4,AATAAGTTATTATTTTGTACACATAAATAATACGTT [XGTACX_site814],7.74 ± 0.49
5,GCACTAAAAAAATAAACACACAGATTTATATAATAT [CACACA_site1381],7.76 ± 0.54
6,ATATATGCATATATTTGTACACATTTTTTTACATAA [XGTACX_site4624],8.27 ± 0.52
7,AAAAAAACGTAAAAATGTACTTTTTGTATATAACCT [XGTACX_site7950],7.71 ± 0.47
8,AAGGAACTATAATATACACACATAAGTGTACTTATA [CACACA_site7816],7.9 ± 0.057
9,ATTTCTTTTGTTATAGTGCATAATATTTATGTACGT,10.8 ± 0.49
10,AAAGAAAGAAAGAAAAGTACTTAAACTTTTAAAAAT [XGTACX_site8531],7.51 ± 0.69
11,AATAATAATAAAAATAAACACACATATATATGTATA [CACACA_site8928],7.57 ± 0.28
12,TAACTATCATGTATTACACACAATATTTATTATATA [CACACA_site2701],7.88 ± 0.46
13,TTAAATAAATAAATAACACACATATAAAAATAACGC [CACACA_site3266],8 ± 0.56
14,ATATTAATATATAGAAGTACTCACATGTTAATATAA [XGTACX_site7323],7.83 ± 0.47
15,AAGACAAATTTTACATGTACAAATATATTACATATA [XGTACX_site7060],7.79 ± 0.57
16,AAGAAAAAAAGCAACACACGTACCAACACAATTATG [CACACA_site3133],8.15 ± 0.65
17,TATTCAAATTTCCACATACACACCTTGTAGATATAT [CACACA_site281],7.97 ± 0.45
18,GTAGACTGAAACCACACACACATATATATATATATT [CACACA_site605],7.89 ± 0.59
19,TAATATTTCGCACTGTGTACTGAAATATTTATATCG [XGTACX_site516],8.99 ± 0.028

row,Sequence,gcPBM binding intensity (ln)
1,ATAATAAGACGATAAGGTACACAAAATGTTAATATA [XGTACX_site6984],7.79 ± 0.58
2,TACTAATATGATATATAAATATTGTTATATAATAAT [XGTACX_negctrl_site227],7.58 ± 0.13
3,AAAATAAAAGAAAAAAGTACAAAATCAGATTAATTA [XGTACX_site8413],7.44 ± 0.71
4,TGAATACAAATTTACGCATGTAATTTCCAGAGGGAG [TGCATGCA_site769],7.87 ± 0.57
5,TATAAAATATAATTAGCACACATATATAAAATATAT [CACACA_site9355],8.2 ± 0.028
6,AATATATGTAATATATGTACTTAATTATATTTTAAT [XGTACX_site4382],7.54 ± 0.36
7,ACATATGAATATAATACACACTTGTATTATTAATAT [CACACA_site8546],7.96 ± 0.49
8,TTACCTTTATTGTATGAACACACATAAGCTGATACA [CACACA_site9334],7.86 ± 0.47
9,AAAAAAAAAAAAAGAGTGCAAACTATGATAATTTAA,9.22
10,TATATATATACATATTGTACATGTGTATATTTTTTT [XGTACX_site361],8.6 ± 0.45
11,TTAGTTATTAAAAAAAGTACATAAGTAGATATCATC [XGTACX_site8712],7.79 ± 0.5
12,AAAATTTAATATAATGCACACATAAAAAAAAAAAAA [CACACA_site7923],11 ± 0.93
13,CCATTTTTTTTATACGCACACGTCATACTTTTAAAA [CACACA_site4988],9.05 ± 0.15
14,GAATAATATGGACATACACACATATACATACATATA [CACACA_site2114],7.96 ± 0.39
15,TTATTTCATTCTTGAAGTACGTGAAAAATGAAAACA [XGTACX_site4089],8.12 ± 0.13
16,CGTAATAAAAACAAATGTACATGACCTGGACAGGTT [XGTACX_site6560],7.7 ± 0.66
17,GTATATTTTTAAAGGTGTACTTTTTTTTTTTTTTTT [XGTACX_site721],8.85 ± 0.44
18,ATATAAAACTATAATACACACATAAAATATATTATA [CACACA_site6588],7.89 ± 0.3
19,ATAAATATATATATAGTGCATATAAGCCACCTTCAA [GTGCAC_site9628],10.7 ± 0.11

row,Sequence,gcPBM binding intensity (ln)
1,TATATAATACAACATGCACACATATATATGTGAATC [CACACA_site8794],8.37 ± 0.21
2,TATATTTATTTATTCTGTACTGAAGACAGTTATGTA [XGTACX_site8857],7.62 ± 0.41
3,ATATATTTTATATAATGTACATAAACCGCACACATA [XGTACX_site6061],8.29 ± 0.28
4,TTTCAAATTTAATACACACACAAGTATATATCTATC [CACACA_site7782],7.73 ± 0.52
5,ATTTAAAAAAAAAAAAAAAAAAAAAAAAAAAGAAAA [CACACA_negctrl_site722],7.49 ± 0.49
6,TTTAATATTAGCATATGTACACAAATCACACGGAAA [XGTACX_site2473],8.26 ± 0.33
7,TATATTATGACCACCACACACCTATACACATAACAT [CACACA_site7199],8.41 ± 0.26
8,TAATCCTTTCAATATTGTACACATTTGTGTTAAGAA [XGTACX_site1275],8.05 ± 0.22
9,AACGCACGAGGACACACACACATATTTATATTTATA [CACACA_site6608],8.23 ± 0.23
10,TTTTTTAACTGTATGATGTTATATTAAAAATAAAAA [GTGCAC_negctrl_site463],7.67 ± 0.36
11,ATTTATATATAATATACACACATATAATACCCATAT [CACACA_site4548],7.82 ± 0.52
12,GGACAAGAATAGTGCACATGCAATGTTATTTTTTAT [TGCATGCA_site450],10.7 ± 0.35
13,ATTATAACCATATACACACCCATATAAATAAATATA [CACACA_site6926],7.88 ± 0.45
14,CGTTTTAATAAGATCACACATATAATATATATATAT [CACACA_site5159],8.82 ± 0.092
15,ATATTAAATGTTATCACACACATAATTACTTCCATA [CACACA_site7160],7.87 ± 0.69
16,TATTAAATGGCCATTACATGCAATTATTTCTAATAA [TGCATGCA_site275],7.52 ± 0.45
17,TCAAATATATAGAATACACACATGGATATAAGAAAT [CACACA_site4065],8.11 ± 0.59
18,ATTTAATTTGTTCTTACACACACATATATATATATT [CACACA_site8310],8.22 ± 0.76
19,ATAATATAAATACAAACACACAATTGCGTCCACATT [CACACA_site5039],7.95 ± 0.54
